By % Inhibition is commonly meant the drop in the measured response relative to a control, in per cent.

The structures appear in SMILES notation. Hit rate of the full screen: of about 150,000 compounds, about 540 (0.36%) showed an effect of 50% or more. Some of the results follow.

This experiment relates to Plasmodium falciparum. The experiment is described as follows: Primary screen in NF54 nanoGlo assay, in single point, at 2uM, 72h; a lower Z score goes with more inhibition. Type of experiment: functional, Erythrocyte. The settings on record: timepoint 72 hour.
In the case of `COc1ccc(-c2noc(Cn3ncn(C)c3=O)n2)cc1OC`, the “% Inhibition” value worked out at 4% and the Z score is -0.58.

Turning to `CCC[C@@]1(C2CCN(C(=O)c3ccccc3OC)CC2)NC(=O)N(Cc2ccco2)C1=O`, the “% Inhibition” value was 9% and the Z score was -1.27.

Take `C#Cc1ccc(C(=O)N2CCC3CCC(O)C2C3)cc1` (centres undefined): the “% Inhibition” value is given as 8% and the Z score is -1.54.

In the case of `CC1(C)CCC(NC(=O)c2cnn3c2CCC3)(C(N)=O)CC1`, the “% Inhibition” value is on record as 0% and the Z score is -0.04.

Consider `CCc1nc(-c2cccc(C(=O)N(C)C3CCN(C)CC3)c2)ccc1C`, for which the “% Inhibition” value was found to be 3% and the Z score is reported as -0.49.

Take `Cc1ccc(OCC2c3ccsc3CCN2C(=O)CN(CC2CCCO2)C(=O)Nc2cccc(Cl)c2)c(C)c1` (centres undefined): the “% Inhibition” value is recorded as -10% and the Z score came to 1.33.

With `Nc1nc(CCCn2cnc3nccnc3c2=O)cs1`, the “% Inhibition” value was -9% and the Z score is on record as 0.85.

Regarding `CC1(C)NC(=O)N(CCCN2CC[C@@](O)(C(F)(F)F)C2)C1=O`, the “% Inhibition” value is given as 13% and the Z score was -1.48.

`CCCNS(=O)(=O)NC[C@@H](c1ccc(Cl)cc1)n1ccnc1`: the “% Inhibition” value is on record as -6% and the Z score came to 0.94.

As for `CN(C)c1ccc(NC(=O)OCC(F)(F)F)cn1`, the “% Inhibition” value is on record as -17% and the Z score is 3.28.

With `Cc1cc(C(C)(C)C)oc1C(=O)NCCNC(=O)c1oc(C(C)(C)C)cc1C`, the “% Inhibition” value is -9% and the Z score amounted to 1.2.

Take `O[C@@H]1C[C@H]2CN(Cc3ccccc3OCCCn3ccnc3)C[C@H]2C[C@@H]1O`: the “% Inhibition” value is -5% and the Z score came to 0.56.

Consider `COc1cccc2c(O)c(C(=O)NCCCc3nc4ccccc4n3C(C)C)cnc12`, for which the “% Inhibition” value is on record as -6% and the Z score amounted to 1.01.

For the compound `Fc1cnccc1NCCCOC1CCCCC1`, the “% Inhibition” value is given as -14% and the Z score was 2.27.

As for `Cc1noc(COC(=O)c2cccc(OCc3ccc(F)cc3)c2)n1`, the “% Inhibition” value is -3% and the Z score was determined as 0.68.

`C[C@@H](Cc1ccco1)NC(=O)c1ccco1`: the “% Inhibition” value is listed as -13% and the Z score is 1.22.

`N#CCN1CCC[C@H](NCC(F)(F)F)C1`: the “% Inhibition” value was -4% and the Z score is given as 0.53.

For `CCn1c(CC2CCNCC2)nn(Cc2cccc(F)c2F)c1=O`, the “% Inhibition” value is recorded as -4% and the Z score was 0.77.

As for `CN(Cc1nc2ccccc2c(=O)[nH]1)c1ccc(F)cc1`, the “% Inhibition” value is on record as -15% and the Z score was determined as 2.75.

`Cc1cc(C(=O)N[C@H]2CCS(=O)(=O)C(C)(C)C2)no1`: the “% Inhibition” value is -6% and the Z score was found to be 0.58.

Consider `Cc1cccc(C)c1Oc1ccccc1NC(=O)C(=O)Nc1ccnn1C(C)C`, for which the “% Inhibition” value is -8% and the Z score was 1.54.

For the compound `CCS(=O)(=O)CC(=O)N1CC(C)(C)N(C)c2cc(Br)ccc21`, the “% Inhibition” value was -17% and the Z score was 1.69.

On to `Cc1cc(C(=O)N[C@@H]2C[C@H](COc3ccc(S(C)(=O)=O)cc3)[C@@H](O)[C@H]2O)no1`, for which the “% Inhibition” value is reported as -15% and the Z score is recorded as 2.73.

For `N#Cc1ccc(N[C@@H]2c3ccccc3C[C@@H]2O)c(F)c1`, the “% Inhibition” value is listed as -6% and the Z score worked out at 0.93.

As to `COc1cnc(CN2CCN(c3ncccn3)CC2)cc1O`, the “% Inhibition” value was found to be 6% and the Z score was -1.13.

Consider `CC1CCN(Cc2ccc(C(=O)NCCc3nccn3C)o2)CC1`, for which the “% Inhibition” value is reported as -16% and the Z score came to 1.57.

Consider `Cc1ccc(CCNC(=O)c2cc(-c3cnn(-c4ccc(C(C)C)cc4)c3C)nc3ccccc23)cc1`, for which the “% Inhibition” value is -6% and the Z score was found to be 0.67.

For the compound `CC(C)[C@H](NS(=O)(=O)CC1CCCC1)c1ncnn1C`, the “% Inhibition” value is recorded as 2% and the Z score is -0.27.

As for `NC(=O)c1cc2cc(NC(=O)c3ccccc3Cl)ccc2n1Cc1cccc(F)c1`, the “% Inhibition” value is -3% and the Z score is given as 0.33.

Take `COc1ccc(C(=O)N2c3ccccc3N=C(c3ccc(Br)cc3)C[C@H]2c2ccccc2)cc1`: the “% Inhibition” value is given as 3% and the Z score is -0.3.

On to `CN(CC(F)(F)F)C(=O)Cn1cnc2c(c1=O)CCC2`, for which the “% Inhibition” value was -6% and the Z score was found to be 1.11.

Take `CN(C(=O)C[C@@H](c1ccc(Cl)c(Cl)c1)N1CCOCC1)C(C1CC1)C1CC1`: the “% Inhibition” value is -35% and the Z score turned out to be 4.13.

As for `CCc1nc(C)c(CN2Cc3cc(C)ccc3O[C@H](c3ccsc3)C2)[nH]1`, the “% Inhibition” value is on record as -8% and the Z score was 1.05.

For the compound `O=C1N[C@H](c2ccccc2)C(=O)N2CCC[C@H]12`, the “% Inhibition” value turned out to be 0% and the Z score was -0.04.

Consider `Cc1cc([C@@H](C#N)c2ccc(Cl)cc2)c(Cl)cc1NC(=O)CN1C(=O)c2ccccc2C1=O`, for which the “% Inhibition” value is recorded as -3% and the Z score is recorded as 0.52.

Turning to `O=C(NCCc1cccs1)C1CCN(C(=O)c2ccns2)CC1`, the “% Inhibition” value is reported as -3% and the Z score is reported as 0.64.

Regarding `Cc1nn(C)c(C)c1S(=O)(=O)N1CCCN(C(=O)[C@H]2CCOC2)CC1`, the “% Inhibition” value was -9% and the Z score was determined as 1.35.

As for `CC(=O)N(CCc1noc(C(C)C)n1)[C@H]1CCN(S(=O)(=O)Cc2cccc(F)c2)C1`, the “% Inhibition” value was -5% and the Z score is given as 0.59.

Regarding `Cc1nn(-c2ccccc2)c2sc(C(=O)N3CCNC(=O)C3)cc12`, the “% Inhibition” value is given as -9% and the Z score came to 0.74.

In the case of `Cc1cc(C)n(Cc2cccc(C(F)(F)F)c2)c1C(=O)NCc1cccc(C(F)(F)F)c1`, the “% Inhibition” value is reported as -13% and the Z score was determined as 1.13.

Take `Cc1nnc(CNC(=O)Nc2cccc3c4c(oc23)CCCC4)o1`: the “% Inhibition” value came to 49% and the Z score is listed as -6.67.

`CC(C)(C)N1CC[C@H]1c1nc(-c2ccncc2)no1`: the “% Inhibition” value was -6% and the Z score amounted to 1.05.
